Results: publication PMC4336329 (PLoS ONE, 2015)
In all, about 310,000 compounds went through this assay and about 14,000 (4.5%) showed an effect of 50% or more. The effect is printed as a negative number. The list shows a part of the results.

The compounds below were run against human ether-à-go-go-related gene (hERG) potassium channel (human, UniProt Q12809) (assay: primary screen, population patch clamp on CHO cells stably expressing hERG).
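Further: peak tail current of the secondary pulse compared with the same well before compound.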

Sequence of human ether-à-go-go-related gene (hERG) potassium channel (Q12809 whole entry, looked up): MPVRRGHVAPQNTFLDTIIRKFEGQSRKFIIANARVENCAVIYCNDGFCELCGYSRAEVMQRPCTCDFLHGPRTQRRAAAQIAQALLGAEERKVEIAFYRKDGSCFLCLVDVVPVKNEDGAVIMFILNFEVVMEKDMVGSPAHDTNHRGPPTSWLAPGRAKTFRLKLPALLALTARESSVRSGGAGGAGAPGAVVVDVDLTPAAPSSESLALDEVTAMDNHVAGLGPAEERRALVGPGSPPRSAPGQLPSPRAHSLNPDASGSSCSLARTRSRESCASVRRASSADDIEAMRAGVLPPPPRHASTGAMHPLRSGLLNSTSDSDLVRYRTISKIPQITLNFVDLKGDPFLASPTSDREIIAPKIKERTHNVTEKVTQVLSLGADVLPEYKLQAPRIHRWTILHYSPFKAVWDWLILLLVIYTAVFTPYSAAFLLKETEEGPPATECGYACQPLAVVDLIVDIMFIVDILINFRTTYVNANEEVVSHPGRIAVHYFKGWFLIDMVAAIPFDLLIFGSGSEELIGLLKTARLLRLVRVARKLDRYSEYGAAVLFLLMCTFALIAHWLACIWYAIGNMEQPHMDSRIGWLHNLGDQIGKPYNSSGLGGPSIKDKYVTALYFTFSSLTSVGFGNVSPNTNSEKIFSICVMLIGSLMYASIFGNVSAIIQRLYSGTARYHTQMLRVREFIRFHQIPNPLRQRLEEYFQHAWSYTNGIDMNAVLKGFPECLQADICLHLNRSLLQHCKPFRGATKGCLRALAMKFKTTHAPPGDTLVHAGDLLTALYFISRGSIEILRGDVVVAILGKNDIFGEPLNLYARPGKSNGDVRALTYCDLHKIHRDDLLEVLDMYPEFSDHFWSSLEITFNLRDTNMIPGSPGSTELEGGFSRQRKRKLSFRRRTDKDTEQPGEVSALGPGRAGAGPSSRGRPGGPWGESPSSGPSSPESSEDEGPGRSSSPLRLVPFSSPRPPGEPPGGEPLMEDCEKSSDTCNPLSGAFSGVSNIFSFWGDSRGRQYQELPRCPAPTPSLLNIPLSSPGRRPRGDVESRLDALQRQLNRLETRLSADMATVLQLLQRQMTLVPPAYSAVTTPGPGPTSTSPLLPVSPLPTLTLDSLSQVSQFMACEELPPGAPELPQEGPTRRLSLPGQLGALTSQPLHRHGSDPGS

Compound	hERG current change (%, negative = inhibition) at 10uM [%]
CC(=O)n1cc([C@H]2C=C(C(=O)NCc3ccccc3)O[C@@H](OCc3ccc(CO)cc3)C2)c2ccccc21	15.6
O=C(CCC(F)(F)F)N1CCCC(N2CCN(c3cccc(Cl)c3)CC2)C1 (stereo not drawn)	-46.8
C=CCNc1nc2ccccc2c(=O)[nH]1	23.2
CC(C)C(NC(=O)c1ccco1)C(=O)OCC(=O)NCCc1ccccc1 (stereo not drawn)	14.8
COC(=O)CC1=C(C(=O)OC)C2(C(=O)N(C)c3ccccc32)C(C#N)=C(N)O1 (stereo not drawn)	14.7
O=c1nc(SCc2cccc(C(F)(F)F)c2)nc2ccccn12	-37
COCCNC(=O)c1cc(C(=O)CC(C)C)c[nH]1	14.1
Cc1ccc(C(=O)Nc2ccc3cn[nH]c3c2)cc1S(=O)(=O)N1CCOCC1	-8.78
Cc1nonc1OCCCNc1ccc([N+](=O)[O-])cc1Cl	9.59
CC(C)N(C(=O)C[n+]1ccc(/C=N/O)cc1)C(C)C	9.47
COc1cccc(C(=O)N(C)CC(=O)Nc2ccc(F)c(F)c2F)c1	11.4
CCCC(=O)NCc1ccc2c(c1)cc(C)n2C	5.43
O=C(Nc1nccs1)c1ccccc1Br	-21.5
CCOC(=O)c1ccc(NC(=O)c2ccc(CO)c(C(=O)NC3CCN(C(=O)OCC)CC3)c2)cc1	25.4
COc1ccc(C(CNC(=O)c2ccc(S(=O)(=O)N(C)C)cc2)N2CCCC2)cc1 (stereo not drawn)	4.17
Cc1cnc(NC(=O)C2CCCO2)s1 (stereo not drawn)	-23.1
Cc1nn2c3ccccc3n(C)c2nc1=O	14.3
COc1ccc(CNC(=O)/C=C/c2cc([N+](=O)[O-])ccc2OC(F)F)cc1OC	-16
Cc1ccc(OC(=O)c2cccc([N+](=O)[O-])c2)c(-n2nc3ccccc3n2)c1	23.4
Cc1ccc(C(C[N+](=O)[O-])c2c(N)n(C)c(=O)n(C)c2=O)cc1 (stereo not drawn)	9.93
O=C(Cn1nnc(-c2ccc(F)cc2)n1)Nc1ccc2c(c1)OCCO2	10.3
O=c1c2cc(F)ccc2sn1-c1ccccc1	15.5

Compound	hERG current change (%, negative = inhibition) at 10uM [%]
COc1ccc(-c2nn(-c3ccccc3)cc2CNCCN2CCOC2=O)c(F)c1	-11.9
O=C(CSc1nc(-c2ccc(F)cc2)cc(C(F)(F)F)n1)Nc1ccc2c(c1)OCO2	4.25
C=CCn1c(=O)/c(=C2/Sc3cc(OC)ccc3N2C)s/c1=C1\C(=O)N(CC)C(=S)N1C	10.1
COc1ccc(Cl)cc1NC(=O)C(=O)NC1CCCCCC1	-3.2
CC(C)(C)N1C(=O)c2ccccc2NC(=O)N1Cc1ccccc1	10.3
COc1ccc(-n2c(Cc3cccn3C)nnc2SCC(=O)Nc2cccc(OC)c2)cc1	-23.4
CC(=O)Oc1c(Cl)c(N2CCOCC2)c(OC(C)=O)c2ccccc12	-25.2
O=C(O)C1CC=CCC1C(=O)NCc1ccc(Cl)c(Cl)c1 (stereo not drawn)	-24.5
CC(=O)c1ccc(NC(=S)Nc2ccc(N3CCOCC3)cc2)cc1.Cl	-3.37
O=C1CC(N2CCN(Cc3ccc(Cl)cc3)CC2)C(=O)N1CCc1ccccc1 (stereo not drawn)	-37.4
COc1cccc(CN2CCN(C(=O)c3cccs3)CC2)c1OC	-4.33
CNC(=O)C(=O)NCCN1CCN(S(=O)(=O)c2ccc3ccccc3c2)CC1	29.3
Cc1ccc(-c2csc3ncnc(N4CCN(Cc5ccccc5)CC4)c23)cc1	18
Cc1ncc([N+](=O)[O-])n1CC(=O)NC1CCCC1	15.1
COc1ccc(-c2cc(C(=O)NC3=NCCS3)c3ccccc3n2)cc1OC	6.78
O=C(COC(=O)c1cc([N+](=O)[O-])ccc1N1CCOCC1)Nc1ccccc1OC(F)F	-40.4
O=C(COC(=O)/C=C/c1ccc2c(c1)OCO2)NC1CCS(=O)(=O)C1 (stereo not drawn)	-22.4
COc1cccc(NC(=O)CN(C)C(=O)Cc2c(C)nc3ccccc3c2C)c1	-62.8
O=C(c1ccco1)c1cn[nH]c1-c1ccc(Cl)cc1O	-8.52
CC1=C(CC(=O)O)c2cc(F)ccc2/C1=C/c1ccc(S(C)=O)cc1 (stereo not drawn)	8.64
COc1ccc(-n2c3c(cc(C#N)c2=O)C(=O)CCC3)cc1	29.1
COc1ccc(N(C(=O)Cc2cccs2)C(C(=O)NC2CCCC2)c2ccncc2)cc1OC (stereo not drawn)	6.17

Compound	hERG current change (%, negative = inhibition) at 10uM [%]
Cc1ccc2oc(-c3cccc(NC(=O)Cc4cccs4)c3)nc2c1	20.9
COCCSc1nnc(NC(=O)CS(=O)(=O)c2ccc(C)cc2)s1	16
Cc1ccc(OCC(=O)N2CCc3ccccc3C2)c(C)c1	-16.1
O=C(CCN1CCCCC1)Nc1ccc(Br)cc1	-37.9
O=C(CCN1C(=O)c2ccccc2S1(=O)=O)Nc1ccccc1O	-19.8
C=C(C)C(=O)Oc1ccc(N2C(=O)[C@@H]3C4C=CC(C4)[C@@H]3C2=O)cc1	16.5
O=C(CSCc1c(F)cccc1Cl)NCc1cccnc1	-2.46
O=C(NC1CCN(C(=S)Nc2ccc(Cl)cc2)CC1)c1ccco1	-72.8
CN1C(=O)C(CC(=O)Nc2ccccc2)S/C1=N/c1nccs1 (stereo not drawn)	5.29
C=C(C)CSc1nc(N)c2c(C)c(C)sc2n1	16.6
COc1ccc2cc3cc(C(=O)Nc4ccccc4N4CCN(C)CC4)oc3nc2c1	-38.6
O=C(O)C(=O)O.O=C(c1cccs1)N1CCN(Cc2ccncc2)CC1	-5.94
O=C1CNC(=O)/C(=C/c2ccco2)N1	23.3
O=C(COC(=O)c1cc(-c2cccs2)nc2ccccc12)NC1CCS(=O)(=O)C1 (stereo not drawn)	-41.3
Oc1ccc(/C=N/NC(=S)NCc2ccco2)cc1	-10.7
CCOC(=O)C1CN(S(=O)(=O)c2cc(OC)ccc2OC)C1	13.7
Cn1c(N)c(C(=O)CSc2nc3ccccc3c(=O)n2CCCN2CCOCC2)c(=O)n(C)c1=O	2.7
CCOC(=O)C1CCN(C(=O)COc2ccc(N(C)S(=O)(=O)c3cccs3)cc2)CC1	-44.8
O=Cc1c(NCCc2cccc(F)c2)c2ccccc2[nH]c1=O	-5.02
CN(C)C1C(=O)C(C(N)=O)=C(O)C2(O)C(=O)C3=C(O)c4c(O)cccc4C(C)(O)C3C(O)C12 (stereo not drawn)	3.94
Cc1ccc(-n2nc3c(c2NC(=O)c2cc4ccccc4o2)CS(=O)(=O)C3)cc1	-26.1
Cc1ccc2c(c1)N(C(=O)CCC(=O)N1CCN(c3ccccn3)CC1)CCO2	-52.2

Compound	hERG current change (%, negative = inhibition) at 10uM [%]
CCOC(=O)c1ccc(NS(=O)(=O)c2ccc(Cl)nc2)cc1	24.5
COc1cccc(/C(O)=C2/C(=O)C(=O)N(CCCN3CCOCC3)C2c2ccncc2)c1 (stereo not drawn)	13.5
Cc1cc(=O)oc(C)c1C(=O)N1CCCc2ccccc21	7.6
Cc1ccc(Cn2c(=O)c3c(ncn3C)n(C)c2=O)cc1	8.05
COc1ccc2cc[nH]c2c1	7.29
COc1ccccc1CNc1ccc2nnc(CCNC(=O)c3ccccc3)n2n1	-11.4
O=C1C=C(Nc2ccc(O)cc2)CC(c2ccco2)C1 (stereo not drawn)	0.756
O=C(/C=C/c1ccc(F)cc1)NC(=S)N1C[C@H]2C[C@H](C1)c1cccc(=O)n1C2	-22.9
Cc1ccccc1NS(=O)(=O)c1ccc(C(=O)NNC(=O)c2ccccc2O)cc1	3.76
N#C/C(=C\c1cn[nH]c1-c1ccc(Cl)cc1)C(=O)NC1CC1	-28.3
Cc1cc(C)cc(N(CC(=O)NC2CCCC2)C(=O)CCC(=O)Nc2nc(C)cs2)c1	1.22
CCOc1ccccc1CN1CCNC(=O)C1CC(=O)NCCCn1cccn1 (stereo not drawn)	8.2
CCOc1ccccc1NC(=O)Cn1nnc(C(=O)NCc2ccco2)c1N	1.52
Cc1ccc(CNC2=NCCS2)cc1	1.97
O=C(N/N=C/c1cccnc1)c1ccc(S(=O)(=O)N2CCCCCC2)cc1	12.2
O=C(CSc1nnc(Cn2nnc3ccccc32)o1)N(Cc1ccc(F)cc1)c1ccccc1	-20.6
CCCc1nnc(NC(=O)C(C)N2C(=O)C3C4C=CC(C4)C3C2=O)s1 (stereo not drawn)	-9.2
O=C(CCCN1C(=O)C(c2ccccc2)Oc2cccnc21)Nc1cccc(F)c1 (stereo not drawn)	-50.2
COc1ccc(F)cc1C(=O)C1CCCN(C(=O)c2ccccc2N(C)C)C1 (stereo not drawn)	-19.2
COc1ccc(Nc2oc(COc3ccccc3OC)nc2C#N)cc1	-0.599
Cc1ccccc1CN(c1ccc(C(=O)Nc2cccnc2)cc1)S(C)(=O)=O	-9.59
